# According to PubChem BioAssay AID2676 (National Center for Advancing Translational Sciences (NCATS), 2010):
# Several values for one entry are separate records, joined by “and”; a condition that tells them apart may be missing. Equal entries are not always repeated. Among all 370,000 compounds or so, about 1,100 (0.3%) were called active. Inconclusive means that the source gave no clear call. Such entries were picked first, then a sample of the others. Calls follow the shape of the dose curve; as a rule, active = well fitted activation curve with a large enough effect; inconclusive = small, poorly fitted or top-dose-only effect; inactive = flat fitted curve, though single readings scatter. Where the call is inconclusive, the potency comes from a doubtful curve fit.
# Molecular target: Relaxin receptor 1 (Homo sapiens) (UniProt Q9HBX9)
# Experiment: qHTS Assay for Agonists of the Relaxin Receptor RXFP1; also: nearly all actives have a fitted effect of over 60% in size
# Conditions: HEK293T-RXFP1 cAMP TR-FRET, 30 min; series mostly up to 57.5 µM
# How it was run: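 HEK293 cells stably expressing RXFP1, treated 30 min at 37C with compounds plus PDE4 inhibitor Ro 20174; cAMP measured by HTRF TR-FRET. Normalized to buffer and 29 nM porcine relaxin; EC50 by Hill fit.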
# Potency is read from the fitted curve at half-maximal effect; tags tell the direction and shape of the fitted curve.
# Sequence of UniProt Q9HBX9 (Q9HBX9 whole entry, looked up): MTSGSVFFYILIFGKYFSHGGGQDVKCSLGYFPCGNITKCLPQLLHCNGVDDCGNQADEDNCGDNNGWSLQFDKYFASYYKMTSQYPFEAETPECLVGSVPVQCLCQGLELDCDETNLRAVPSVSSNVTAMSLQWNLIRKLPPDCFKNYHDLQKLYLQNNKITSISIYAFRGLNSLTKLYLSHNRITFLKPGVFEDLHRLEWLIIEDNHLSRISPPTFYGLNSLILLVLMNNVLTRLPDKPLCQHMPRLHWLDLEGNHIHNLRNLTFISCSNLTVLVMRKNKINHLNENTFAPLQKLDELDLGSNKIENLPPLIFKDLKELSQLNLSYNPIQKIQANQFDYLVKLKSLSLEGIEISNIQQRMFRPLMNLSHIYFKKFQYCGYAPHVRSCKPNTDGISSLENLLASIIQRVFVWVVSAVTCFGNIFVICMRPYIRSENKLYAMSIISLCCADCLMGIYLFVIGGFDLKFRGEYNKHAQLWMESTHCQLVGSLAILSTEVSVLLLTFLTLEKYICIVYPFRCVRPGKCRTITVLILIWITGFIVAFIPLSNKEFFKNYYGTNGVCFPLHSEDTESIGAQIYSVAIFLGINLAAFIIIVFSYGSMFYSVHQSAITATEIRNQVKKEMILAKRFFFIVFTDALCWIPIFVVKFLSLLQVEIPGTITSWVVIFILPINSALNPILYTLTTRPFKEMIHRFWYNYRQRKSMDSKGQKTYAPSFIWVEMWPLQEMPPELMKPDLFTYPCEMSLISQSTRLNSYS
row,Structure (SMILES),Potency
1,COc1cccc(NC(=O)CN2C(=O)CSc3nc(C)cc(C)c32)c1,inactive
2,CC(C)(C)OC(=O)NCCCCCc1cn([C@@H](CO)C(=O)NCCCCCCCCCCC(=O)N2CCN(C(=O)OC(C)(C)C)CC2)nn1,inactive
3,CCC(C(=O)Nc1ccccc1OC)n1nc(C)c2sc3ccccc3c2c1=O (configuration not stated),"inconclusive: 39.8 µM [activator, single point]"
4,Cc1ccc2c(=O)c(C(=O)c3ccc(Cl)cc3)cn(CC(=O)NC3CCCCC3)c2n1,"inconclusive: 39.8 µM [activator, single point]"
5,CS(=O)(=O)c1ccc2nc(NC(=O)Nc3ccccc3F)sc2c1,"inconclusive: 31.6 µM [activator, single point]"
6,O=[N+]([O-])c1c(Nc2ccccc2O)ccc2nonc12,inactive
7,COc1ccccc1NC(=O)c1ccccc1NS(=O)(=O)c1cccs1,inactive
8,CSc1nnc(N2C(=O)C(O)=C(C(=O)c3ccco3)C2c2ccccc2)s1 (configuration not stated),"inconclusive: 15.8 µM [activator, partial curve]"
9,Cc1cc(N2C(=O)C(O)=C(C(=O)c3ccc(C)o3)C2c2cccc(Oc3ccccc3)c2)no1 (configuration not stated),"inconclusive: 15.8 µM [activator, partial curve]"
10,CC(NC(=O)Cn1c(-c2cccs2)cc2cc(F)ccc21)c1ccccc1 (configuration not stated),"inconclusive: 39.8 µM [activator, single point]"
11,CCn1c(SCC(=O)Nc2c(C)n(C)n(-c3ccccc3)c2=O)nc2c1c(=O)n(C)c(=O)n2C,"inconclusive: 15.8 µM [activator, partial curve]"
12,CC(=O)N/C(N)=N/c1nc(=O)c2ccccc2s1,"inconclusive: 25.1 µM [activator, single point]"
13,Cc1ccc2c(=O)c(C(=O)c3ccccc3)cn(CC(=O)Nc3ccccc3)c2n1,"inconclusive: 39.8 µM [activator, single point]"
14,COc1ccc(-n2c(=O)c3ccc(C(=O)NCc4ccc(C)cc4)cc3n(CC(=O)Nc3ccc(C)cc3)c2=O)cc1,"inconclusive: 25.1 µM [activator, single point]"
15,O=S(=O)(c1ccc(Br)cc1)c1nnn2c1nc(NCc1cccs1)c1sccc12,"inconclusive: 39.8 µM [activator, single point]"
16,Cc1cccc(N2CCN(c3ccc(C(=O)O)cc3NC(=O)c3ccccc3F)CC2C)c1 (configuration not stated),"inconclusive: 39.8 µM [activator, single point]"
17,Cc1cc(C)c2c(-n3cccc3)c(C(=O)NCCc3ccccc3)sc2n1,"inconclusive: 39.8 µM [activator, single point]"
18,CCOC(=O)Cc1csc(-n2sc3ccccc3c2=O)n1,"inconclusive: 20 µM [activator, partial curve]"
19,c1ccc(COn2nnc3ccccc32)c(COn2nnc3ccccc32)c1,"inconclusive: 10 µM [activator, single point]"
20,Cn1c2ccc(F)cc2c2ncn(CCCN(CCO)CCO)c(=O)c21,inactive
21,CCc1ccccc1NC(=O)C1CCN(C2=NS(=O)(=O)C(c3ccc(C)c(C)c3)=C2C)CC1,"inconclusive: 31.6 µM [activator, single point]"

row,Structure (SMILES),Potency
1,CNC[C@H](O)c1ccc(O)c(O)c1,"inconclusive: 20 µM [activator, partial curve]"
2,COc1ccccc1N(C(=O)c1snc(C(N)=O)c1N)C(C(=O)NC1CCCC1)c1ccc(N(C)C)cc1 (configuration not stated),"inconclusive: 35.5 µM [activator, single point]"
3,Cc1c(Cl)cccc1NC(=O)Cn1nc(C)c2sc3ccccc3c2c1=O,"inconclusive: 28.2 µM [activator, single point]"
4,c1ccc2c(-c3nc(-c4ccncc4)no3)cccc2c1,inactive
5,CCOC(=O)C1CCN(C(=O)c2cc3c(=O)n4ccccc4nc3s2)CC1,"inconclusive: 25.1 µM [activator, partial curve]"
6,CCOc1ccc(CNC(=O)c2cc3oc4ccccc4c3n2C)cc1,inactive
7,Cc1ccc(C)c(NC(=O)Cn2cc(C(=O)c3ccncc3)c(=O)c3cc(F)ccc32)c1,"inconclusive: 39.8 µM [activator, single point]"
8,CCN(C(=O)COC(=O)c1cc(-c2ccccc2)nc2ccc(Br)cc12)C1CCS(=O)(=O)C1 (configuration not stated),active: 25.1 µM
9,Cc1cc(O)c2c(C)c(CC(=O)N3CCN(C(=O)C4COc5ccccc5O4)CC3)c(=O)oc2c1 (configuration not stated),"inconclusive: 25.1 µM [activator, partial curve]"
10,Cc1ccc(S(=O)(=O)NCCc2nnc3ccc(SCc4ccccc4C)nn23)cc1,"inconclusive: 28.2 µM [activator, single point]"
11,OCCCNc1ncnc2sc3c(c12)CCN(Cc1ccccc1)C3,"inconclusive: 22.4 µM [activator, partial curve]"
12,CCc1ccc(-c2nc3ccc(Br)cc3c(C(=O)O)c2C)s1,active: 5.62 µM and active: 7.08 µM
13,CSc1ccc(CCNC(=O)C2CCN(c3nc4ccccc4nc3C(F)(F)F)CC2)cc1,"inconclusive: 35.5 µM [activator, single point]"
14,COc1ccc(CC(=O)N/N=C/c2cccnc2)cc1OC,active: 31.6 µM
15,COC(=O)c1ccc(NC(=O)c2c(NCc3ccc(C)o3)sc3c2CCCC3)cc1,inactive
16,COc1cc(OC)c(OC)cc1CN1CCN(c2ccccc2OC)CC1,inactive
17,CCOC(=O)CSc1nc(=O)n2ccccc2n1,"inconclusive: 20 µM [activator, partial curve]"
18,Cc1c(C(=O)NCc2ccc(N(C)C)cc2)oc2c1-c1nn(Cc3cccc(Cl)c3)cc1CC2,"inconclusive: 35.5 µM [activator, single point]"
19,Cc1ccc(C(=O)C2=C(O)C(=O)N(Cc3cccnc3)C2c2ccc(OC(C)C)cc2)o1 (configuration not stated),inactive
20,Cc1c(C(=O)N2CC(C)OC(C)C2)[nH]c2ccc(Br)cc12 (configuration not stated),"inconclusive: 28.2 µM [activator, partial curve]"
21,CCCCn1c(-c2cccs2)nc2oc3ccccc3c(=O)c2c1=O,"inconclusive: 39.8 µM [activator, single point]"
